Assay results as given in the supplement of paper PMC4967469.
A lower IC50 marks a more sensitive line; fits outside the tested doses are given as limits. AUC is the area under the same curve over the 256-fold range up to the top dose, as a fraction; values near 1 show little effect.

compound: NC1(c2ccc(-c3nc4ccn5c(=O)[nH]nc5c4cc3-c3ccccc3)cc2)CCC1 [MK-2206]; experiment: Viability of human cancer cell lines after 72 h of drug (GDSC screen)
Experimental: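 Human cancer cell lines in 384-well plates, medium with 10% serum, drug for 72 h over a 256-fold dose range (nine 2-fold or five 4-fold steps up to the top dose). Adherent lines were fixed and stained with the nucleic acid dye Syto60, suspension lines read with resazurin; signal relative to control wells, capped at 0 and 100%. One two-parameter sigmoid per drug and line, fitted in a mixed model over all curves with the slope shared within a line.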

Cell Line | AUC | IC50 [µM]
NCI-H2405 (lung adenocarcinoma, adherent, top dose 4 µM) | 0.942 | > 4
NCI-H2444 (non-small cell lung carcinoma, adherent, top dose 4 µM) | 0.905 | > 4
NCI-H2452 (mesothelioma, adherent, top dose 4 µM) | 0.971 | > 4
NCI-H3122 (lung adenocarcinoma, adherent, top dose 4 µM) | 0.87 | 3.91
NCI-N87 (stomach, adherent, top dose 4 µM) | 0.816 | 3.62
NCI-SNU-1 (stomach, suspension, top dose 4 µM) | 0.988 | > 4
NCI-SNU-5 (stomach, suspension, top dose 4 µM) | 0.824 | 2.43
NCI-SNU-16 (stomach, suspension, top dose 4 µM) | 0.991 | > 4
NEC8 (testis, adherent, top dose 4 µM) | 0.338 | –
NH-12 (neuroblastoma, adherent, top dose 4 µM) | 0.926 | > 4
NKM-1 (acute myeloid leukaemia, suspension, top dose 4 µM) | 0.78 | 1.7
NMC-G1 (glioma, adherent, top dose 4 µM) | 0.918 | > 4
NOMO-1 (acute myeloid leukaemia, suspension, top dose 4 µM) | 0.709 | 1.06
NOS-1 (osteosarcoma, adherent, top dose 4 µM) | 0.841 | 3.76
NU-DUL-1 (B-cell lymphoma, suspension, top dose 4 µM) | 0.664 | 0.646
NUGC-3 (stomach, adherent, top dose 2 µM) | 0.95 | > 2
NUGC-4 (stomach, adherent, top dose 4 µM) | 0.951 | > 4
NY (osteosarcoma, adherent, top dose 4 µM) | 0.978 | > 4
OACM5-1 (oesophagus, semi-adherent, top dose 4 µM) | 0.978 | > 4
OACp4C (oesophagus, adherent, top dose 4 µM) | 0.639 | 0.657
OAW-42 (ovary, adherent, top dose 4 µM) | 0.664 | 0.745

Cell Line | AUC | IC50 [µM]
OC-314 (ovary, adherent, top dose 4 µM) | 0.883 | 3.24
OCI-AML2 (acute myeloid leukaemia, suspension, top dose 4 µM) | 0.995 | > 4
OCI-AML3 (acute myeloid leukaemia, suspension, top dose 4 µM) | 0.934 | > 4
OCI-AML5 (acute myeloid leukaemia, suspension, top dose 4 µM) | 0.934 | > 4
OCI-LY7 (B-cell lymphoma, suspension, top dose 4 µM) | 0.295 | 0.08
OCI-LY-19 (B-cell lymphoma, suspension, top dose 4 µM) | 0.916 | > 4
OCI-M1 (acute myeloid leukaemia, suspension, top dose 4 µM) | 0.991 | > 4
OCUB-M (breast, adherent, top dose 4 µM) | 0.691 | 0.787
OCUM-1 (stomach, adherent, top dose 4 µM) | 0.705 | 1.02
OE19 (oesophagus, adherent, top dose 4 µM) | 0.927 | > 4
OE21 (oesophagus, adherent, top dose 4 µM) | 0.718 | 1.33
OE33 (oesophagus, adherent, top dose 4 µM) | 0.948 | > 4
OMC-1 (cervix, adherent, top dose 4 µM) | 0.768 | 1.57
ONS-76 (medulloblastoma, adherent, top dose 4 µM) | 0.852 | 3.48
OPM-2 (myeloma, suspension, top dose 4 µM) | 0.931 | > 4
OS-RC-2 (kidney, adherent, top dose 4 µM) | 0.721 | 1.43
OSC-19 (head and neck, adherent, top dose 4 µM) | 0.887 | > 4
OSC-20 (head and neck, adherent, top dose 2 µM) | 0.957 | > 2
OV-7 (ovary, adherent, top dose 4 µM) | 0.826 | > 4
OV-17R (ovary, adherent, top dose 4 µM) | 0.713 | 1.29
OV-56 (ovary, adherent, top dose 4 µM) | 0.933 | > 4

Cell Line | AUC | IC50 [µM]
OV-90 (ovary, adherent, top dose 4 µM) | 0.731 | 1.4
OVCA420 (ovary, adherent, top dose 4 µM) | 0.892 | > 4
OVCA433 (ovary, adherent, top dose 4 µM) | 0.825 | 2.77
OVCAR-3 (ovary, adherent, top dose 4 µM) | 0.77 | 1.67
OVCAR-4 (ovary, adherent, top dose 4 µM) | 0.904 | > 4
OVCAR-5 (ovary, adherent, top dose 4 µM) | 0.83 | 3.23
OVCAR-8 (ovary, adherent, top dose 4 µM) | 0.983 | > 4
OVISE (ovary, adherent, top dose 4 µM) | 0.638 | 0.683
OVK-18 (ovary, adherent, top dose 4 µM) | 0.542 | 0.329
OVKATE (ovary, adherent, top dose 4 µM) | 0.91 | > 4
OVMIU (ovary, adherent, top dose 4 µM) | 0.875 | > 4
OVTOKO (ovary, adherent, top dose 4 µM) | 0.595 | 0.49
P12-ICHIKAWA (T-cell lymphoblastic leukaemia, suspension, top dose 4 µM) | 0.874 | 2.46
P30-OHK (lymphoblastic leukaemia, suspension, top dose 4 µM) | 0.781 | 1.38
P31-FUJ (acute myeloid leukaemia, suspension, top dose 4 µM) | 0.886 | 2.62
P32-ISH (Burkitt lymphoma, suspension, top dose 4 µM) | 0.835 | 1.76
PA-1 (ovary, adherent, top dose 4 µM) | 0.915 | 3.62
PA-TU-8902 (pancreas, adherent, top dose 4 µM) | 0.919 | > 4
PANC-02-03 (pancreas, adherent, top dose 4 µM) | 0.799 | 2.36
PANC-03-27 (pancreas, adherent, top dose 4 µM) | 0.948 | > 4
PANC-04-03 (pancreas, adherent, top dose 4 µM) | 0.844 | > 4

Cell Line | AUC | IC50 [µM]
PANC-10-05 (pancreas, adherent, top dose 2 µM) | 0.953 | > 2
PC-3 (prostate, adherent, top dose 2 µM) | 0.875 | > 2
PC-3 [JPC-3] (lung adenocarcinoma, adherent, top dose 4 µM) | 0.955 | > 4
PC-14 (lung adenocarcinoma, adherent, top dose 4 µM) | 0.952 | > 4
PCI-4B (head and neck, adherent, top dose 4 µM) | 0.955 | > 4
PCI-6A (head and neck, adherent, top dose 4 µM) | 0.857 | 3.16
PCI-15A (head and neck, adherent, top dose 4 µM) | 0.676 | 0.779
PCI-30 (head and neck, adherent, top dose 4 µM) | 0.863 | > 4
PE/CA-PJ15 (head and neck, adherent, top dose 4 µM) | 0.913 | > 4
PEO1 (ovary, adherent, top dose 4 µM) | 0.819 | 2.4
PF-382 (T-cell lymphoblastic leukaemia, suspension, top dose 4 µM) | 0.864 | 2.81
PFSK-1 (medulloblastoma, adherent, top dose 4 µM) | 0.725 | 1.14
PL4 (pancreas, adherent, top dose 4 µM) | 0.925 | > 4
PSN1 (pancreas, adherent, top dose 4 µM) | 0.968 | > 4
PWR-1E (prostate, adherent, top dose 4 µM) | 0.938 | > 4
QGP-1 (pancreas, adherent, top dose 4 µM) | 0.979 | > 4
QIMR-WIL (acute myeloid leukaemia, suspension, top dose 4 µM) | 0.946 | > 4
RC-K8 (B-cell lymphoma, suspension, top dose 4 µM) | 0.993 | > 4
RCC10RGB (kidney, adherent, top dose 4 µM) | 0.928 | > 4
RCC-AB (kidney, adherent, top dose 4 µM) | 0.781 | 2.21
RCC-ER (kidney, adherent, top dose 4 µM) | 0.725 | 1.18
